Experimental data published in PubChem BioAssay AID624417 (National Center for Advancing Translational Sciences (NCATS), 2012).
About 6,400 (1.6%) of roughly 410,000 compounds were called active. The shares of active, inactive and inconclusive entries below differ from those in the screen. Calls come from the whole dose curve; as a rule, active = well fitted inhibition curve with a large enough effect; inconclusive = small, poorly fitted or top-dose-only effect; inactive = no such curve, though single readings can be large or run the other way. A potency beside an inconclusive call is a rough fit, not a confirmed value.

biological target: Glucagon-like peptide 1 receptor (Homo sapiens) (UniProt P43220); experiment: qHTS of GLP-1 Receptor Inverse Agonists (Inhibition Mode); settings: HEK293 GLP-1R CRE-luciferase, luminescence, 24 h, GLP-1R form is constitutively active; activity change, negative = inhibition: at 38.3 µM (top of the series) unless noted; note: nearly all actives have a fitted effect of over 55% in size
How it was run: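 Assay principle: reduced luminescence from a cAMP-responsive reporter in HEK293 cells co-expressing a constitutively active GLP-1R. Conditions: 24 hr compound incubation, 37 deg C, 5% CO2.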
% is set by controls: 0 for no effect and ±100 for the full control effect; potency is the fitted concentration of half-maximal effect; tags give direction and shape of the fitted curve.

Sequence of UniProt P43220 (P43220 whole entry, looked up): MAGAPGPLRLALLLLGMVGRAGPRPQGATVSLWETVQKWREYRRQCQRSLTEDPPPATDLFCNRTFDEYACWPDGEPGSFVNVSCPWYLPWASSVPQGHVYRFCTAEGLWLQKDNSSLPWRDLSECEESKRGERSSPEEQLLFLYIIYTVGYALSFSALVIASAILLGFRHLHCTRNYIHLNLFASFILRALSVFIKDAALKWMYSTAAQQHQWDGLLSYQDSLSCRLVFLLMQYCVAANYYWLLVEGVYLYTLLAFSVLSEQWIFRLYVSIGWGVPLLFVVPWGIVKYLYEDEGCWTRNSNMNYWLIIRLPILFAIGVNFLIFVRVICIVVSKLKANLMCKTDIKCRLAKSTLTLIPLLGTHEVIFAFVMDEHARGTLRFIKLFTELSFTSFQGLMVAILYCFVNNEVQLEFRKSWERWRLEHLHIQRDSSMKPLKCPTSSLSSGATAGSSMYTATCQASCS

Potency, inconclusive:
Clc1ccc(C[n+]2cc(-c3ccc(Cl)cc3)n3c2CCC3)cc1 5.62 µM [inhibitor, partial curve, poor fit]
Cc1cccc(OCc2nnc(SCC(=O)N(C)C3CCCCC3)o2)c1 15.8 µM [inhibitor, partial curve, poor fit]
COc1ccc(-c2csc3ncnc(NCCO)c23)cc1 3.55 µM [inhibitor, full curve, poor fit]
COc1ccccc1N1CCN(CCCNC(=O)Nc2ccccc2)CC1 7.94 µM [inhibitor, partial curve, poor fit]
COc1cc(/C=N/N2CCN(C3c4ccccc4-c4ccccc43)CC2)cc(OC)c1O 11.2 µM [inhibitor, partial curve, poor fit]
O=c1oc(-c2ccccc2NS(=O)(=O)c2ccc(Cl)cc2)nc2ccccc12 11.2 µM [inhibitor, partial curve]
COc1ccccc1NC(=S)N/N=C/c1cccc(C)c1 2.82 µM [inhibitor, full curve, poor fit]
COc1ccc(OC)c(C(=O)c2ccc(Cl)cc2)c1 22.4 µM [inhibitor, single point]
CC1(C)CC(NC(=O)C2CCC(=O)N(Cc3ccccc3F)C2)CC(C)(C)C1 (configuration not stated) 31.6 µM [inhibitor, single point]
CCCCCNC(=O)C(c1cc2ccccc2o1)n1c(=O)c(-c2ccccc2)nc2ccccc21 (configuration not stated) 10 µM [inhibitor, partial curve, poor fit]
COc1ccc(Cl)cc1NC(=O)CN(c1cccc(C)c1C)S(C)(=O)=O 10 µM [inhibitor, single point]
S=C1NC2(CCCC2)Nc2ccccc21 28.2 µM [inhibitor, single point]
Cc1nc(N/N=C/c2ccc(O)cc2O)cc(N2CCOCC2)n1 28.2 µM [inhibitor, single point]
COc1cc(/C=N/Nc2cccc(C)c2)cc(Br)c1O 5.62 µM [inhibitor, partial curve, poor fit]
Cc1ccc(-n2ncc(C(=O)NCCc3ccsc3)c2C2CCN(C(=O)OC(C)(C)C)CC2)c(C)c1 12.6 µM [inhibitor, single point]
C[C@@H]1CN([C@@H](C)CO)C(=O)c2cccc(NC(=O)C3CCCCC3)c2O[C@@H]1CN(C)Cc1ccc(Cl)c(Cl)c1 11.2 µM [inhibitor, partial curve, poor fit]
Cc1c(Br)cccc1NC(=O)c1sccc1-n1cccc1 10 µM [inhibitor, partial curve, poor fit]
C=C(C)COc1ccc(-c2n[nH]c(C)c2-c2ccccc2OC)c(O)c1 12.6 µM [inhibitor, single point]
Nc1nc(-c2ccc(Br)cc2)cs1 12.6 µM [inhibitor, partial curve, poor fit]
Cc1ccc(NC(=O)c2ccc(COc3ccccc3)o2)nc1 28.2 µM [inhibitor, single point]
CCCCOCCCNC(=O)C[C@@H]1C[C@@]2(C(=O)OCC)CCC=C2N(Cc2cccc3ccccc23)C1=O 28.2 µM [inhibitor, single point]
Cc1ccc2[nH]c(=O)c(CN(CCO)Cc3nnnn3CCc3ccccc3)cc2c1 28.2 µM [inhibitor, single point]
Cc1ccccc1OCCC(=O)Nc1cc(S(=O)(=O)N2CCCCC2)ccc1N1CCN(C)CC1 11.2 µM [inhibitor, partial curve, poor fit]
COc1ccc(-c2oc3ccc(-c4ccc(OC)nc4)cc3c2C#CC2(O)CCCCC2)cc1 8.91 µM [inhibitor, single point]
COc1cc2c(cc1OC)CN(c1ccc(C(F)(F)F)cn1)CC2 14.1 µM [inhibitor, single point]
C/C(=N/NC(=O)c1cc2ccccc2cc1O)C1C(=O)c2ccccc2C1=O 1.58 µM [inhibitor, full curve, poor fit]
COc1ccc(C(=O)Nn2c(SCC(=O)NCc3ccco3)nc3ccccc3c2=O)cc1 7.94 µM [inhibitor, partial curve, poor fit]
CCOc1ccc2nc3c(cc2c1)CN(CCOC)C(=NCCOC)S3 20 µM [inhibitor, partial curve, poor fit]
CCN(C(=O)COC(=O)/C=C/c1ccc(S(=O)(=O)N2CCc3ccccc32)cc1)C1CCS(=O)(=O)C1 (configuration not stated) 10 µM [inhibitor, partial curve, poor fit]
O=C(NC1CCSc2ccccc21)c1ccc(F)cc1 (configuration not stated) 2.82 µM [inhibitor, partial curve, poor fit]
Cc1ccc(C(C)C)c(OCC(=O)N/N=C2\CC(=O)CC(C)(C)C2)c1 12.6 µM [inhibitor, single point]
O=C(c1cc(COc2cccc(C(F)(F)F)c2)on1)N1C[C@@H]2CCC[C@H]1C2 10 µM [inhibitor, partial curve, poor fit]
CNS(=O)(=O)c1ccc(NC(=O)C2CC(=O)N(c3ccc(Cl)cc3)C2)cc1 (configuration not stated) 28.2 µM [inhibitor, single point]
CCC(NC(=O)c1cc(COc2ccc(F)c(F)c2)on1)c1ccncc1 (configuration not stated) 28.2 µM [inhibitor, single point]
Cc1ccc(NC(=O)c2ccc(S(=O)(=O)N3CCC(C)CC3)cc2)nc1 31.6 µM [inhibitor, single point]
O=C(Nc1cccc(Br)c1)Nc1nc2c(s1)CCCCCC2 12.6 µM [inhibitor, single point]
COc1cc(CN2CC(=O)N(c3cc(Cl)ccc3C)C2=S)cc(OC)c1OC 14.1 µM [inhibitor, partial curve, poor fit]
CC(C)NC(=O)c1ccc(COc2cc(Cl)ccc2Cl)o1 12.6 µM [inhibitor, single point]
Cc1nccn1CC(O)Cn1c2ccccc2c2ccccc21 (configuration not stated) 28.2 µM [inhibitor, single point]
OC1(c2ccc(Br)cc2)CCNCC1 22.4 µM [inhibitor, single point]
CCn1cc(C(=O)OCC(=O)c2cc(C)n(-c3ccccc3F)c2C)c(=O)c2ccc(C)nc21 15.8 µM [inhibitor, partial curve, poor fit]
Cc1ccccc1NC(=S)N(Cc1ccco1)C(C)c1cccs1 (configuration not stated) 10 µM [inhibitor, partial curve, poor fit]
O=C(CCC1CCN(C(=O)c2cncs2)CC1)Nc1ccccc1 3.55 µM [inhibitor, full curve, poor fit]
CCOc1ccc(-c2cn(-c3ccc(OC)cc3)c(SC)n2)cc1 10 µM [inhibitor, partial curve, poor fit]
COc1ccc(Cl)cc1NC(=O)CN(C)C(=O)c1cc2c(s1)CCC(C)C2 (configuration not stated) 11.2 µM [inhibitor, partial curve, poor fit]
COc1ccc(N(C(=O)Nc2ccc(Cl)cc2)C2=NCCC2)cc1 22.4 µM [inhibitor, partial curve, poor fit]
O=C(N1CCOCC1)C12CC3CC(C1)CC(c1ccccc1)(C3)C2 28.2 µM [inhibitor, single point]
O=C(Nc1ccnn1C1CCN(CCCC2CCCC2)CC1)c1ccccc1 28.2 µM [inhibitor, single point]
Cc1ccc(CNC(=O)C(=O)NCCC2CCCCN2S(=O)(=O)c2ccccc2)cc1 (configuration not stated) 14.1 µM [inhibitor, single point]
CN(C)/C=C/c1c([N+](=O)[O-])c2ccc(O)cc2n1-c1ccccc1 10 µM [inhibitor, partial curve, poor fit]

Potency, active:
O=C(Nc1ccccc1C(=O)Nc1ccc(Br)cn1)c1ccccc1Cl 10 µM
COc1ccc(N2C(=O)CS/C2=N\C(=S)Nc2ccccc2)cc1 12.6 µM

Activity change, negative = inhibition, inactive:
COc1ccc(NC(=O)c2cc(-c3cccs3)on2)cc1 -1.33%
O=[N+]([O-])c1ccc(COn2nnc3ccccc32)cc1 18.9%
CCOC(=O)c1cccc(NC(=O)c2ccc(-n3cnnn3)cc2)c1 4.77%
Cc1cccn2c(=O)c3cc(C(=O)NC(C)C)n(C)c3nc12 18.4%
Cc1cccn2c(=O)c3cc(C(=O)NCC4CCCO4)c(=N)n(Cc4ccc(F)cc4)c3nc12 (configuration not stated) 85.4%
CCOC(=O)c1sc(NC(=O)CSc2nnc(Cc3ccccc3)o2)c(C(=O)OCC)c1C 0%
O=C(CN1C(=O)c2cccnc2Oc2ccc(Cl)cc21)NCCCN1CCCCC1 6.34%
CC(C)C(=O)Nc1ccccc1C(=O)OCc1cc(=O)n2nc(C3CC3)sc2n1 12%
S=c1[nH]nc(Cn2cnc3ccccc32)n1-c1ccccc1 -8.45%
Cc1ccn2c(/C=N/OCc3cccc(F)c3)c(-c3ccc(Cl)cc3)nc2c1 7.94%
